Measured values as given in PMC4336329 (PLoS ONE, 2015).
The campaign covered roughly 310,000 compounds. About 2,200 (0.71%) showed an effect of 50% or more. The effect is printed as a negative number. This is one part of the list.

Molecular target: human ether-à-go-go-related gene (hERG) potassium channel (human, UniProt Q12809)
Assay: primary screen, population patch clamp on CHO cells stably expressing hERG

Chain of human ether-à-go-go-related gene (hERG) potassium channel (Q12809 whole entry, looked up): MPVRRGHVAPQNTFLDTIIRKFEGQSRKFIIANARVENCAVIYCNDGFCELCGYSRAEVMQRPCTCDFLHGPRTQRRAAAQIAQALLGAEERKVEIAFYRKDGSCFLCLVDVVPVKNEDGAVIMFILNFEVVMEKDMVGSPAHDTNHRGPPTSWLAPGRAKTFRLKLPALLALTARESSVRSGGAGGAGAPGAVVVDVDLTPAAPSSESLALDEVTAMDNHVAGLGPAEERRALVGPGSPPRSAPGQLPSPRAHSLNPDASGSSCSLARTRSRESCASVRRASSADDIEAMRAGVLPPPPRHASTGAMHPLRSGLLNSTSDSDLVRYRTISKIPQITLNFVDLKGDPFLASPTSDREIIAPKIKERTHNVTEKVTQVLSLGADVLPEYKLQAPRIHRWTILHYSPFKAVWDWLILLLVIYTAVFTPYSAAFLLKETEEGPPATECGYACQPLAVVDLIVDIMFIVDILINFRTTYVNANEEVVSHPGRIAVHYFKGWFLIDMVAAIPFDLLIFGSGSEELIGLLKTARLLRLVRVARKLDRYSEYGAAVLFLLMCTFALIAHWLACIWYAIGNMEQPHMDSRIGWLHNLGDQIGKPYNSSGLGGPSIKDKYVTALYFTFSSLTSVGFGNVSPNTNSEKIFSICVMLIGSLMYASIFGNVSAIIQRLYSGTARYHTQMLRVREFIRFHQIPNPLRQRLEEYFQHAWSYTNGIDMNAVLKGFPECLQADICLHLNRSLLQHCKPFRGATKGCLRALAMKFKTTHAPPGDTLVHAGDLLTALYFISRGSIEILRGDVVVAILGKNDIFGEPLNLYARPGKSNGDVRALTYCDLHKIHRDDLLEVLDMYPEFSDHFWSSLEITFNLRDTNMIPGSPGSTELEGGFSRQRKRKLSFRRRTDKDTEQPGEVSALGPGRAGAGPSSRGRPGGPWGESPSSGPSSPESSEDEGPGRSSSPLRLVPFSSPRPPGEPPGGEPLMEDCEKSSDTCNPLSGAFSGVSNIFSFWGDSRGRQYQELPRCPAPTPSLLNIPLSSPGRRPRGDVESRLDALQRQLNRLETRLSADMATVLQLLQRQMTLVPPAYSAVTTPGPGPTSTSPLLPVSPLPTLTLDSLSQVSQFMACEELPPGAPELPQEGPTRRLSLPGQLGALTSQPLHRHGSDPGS

Compound	hERG current change (%, negative = inhibition) at 1uM
CC(=O)Nc1ccc(C)cc1	7.25%
O=C(Cn1c(CN2CCCCC2)nc2ccccc2c1=O)NCc1ccco1	-0.22%
CCOC(=O)C(=CNc1cc(C)nn1-c1ccc(C)cc1)C(=O)OCC	-16.2%
CCOc1ccc(CN(C(=O)c2ccco2)C2CCS(=O)(=O)C2)cc1 (centres unmarked)	14.1%
CC(C)(C)c1cc(C(=O)NNc2cc(C(F)(F)F)ccc2Cl)n(Cc2ccccc2)n1	3.89%
CC(=O)N1c2ccc(S(=O)(=O)N3CCC(C(=O)NCc4ccc(N(C)C)cc4)CC3)cc2CC1C (centres unmarked)	13%
Cc1cc(C)nc(N2CCC(C(=O)NCc3ccccc3)CC2)n1	9.61%
COc1ccc(C2CC(=O)c3cnc(N4CCN(Cc5ccccc5)CC4)nc3C2)cc1 (centres unmarked)	13%
CCOC(=O)c1c(C)[nH]c(C(=O)Nc2ccc(NC(C)=O)cc2)c1C	2.49%
CSCCC(NC(=O)c1cccc([N+](=O)[O-])c1)C(=O)O (centres unmarked)	5.08%
O=C(O)CSCC(=O)c1ccccc1	11.7%
O=C(NC1CC(=O)N(c2ccccc2)C1)C1CC1 (centres unmarked)	3.29%
COc1ccc(Cl)cc1NC(=S)NCCSc1ccc(C)cc1	6.53%
COc1ccc(Nc2nc(N3CCCCC3)nc(N3CCCCC3)n2)c(OC)c1	10.1%
O=C(O)C(Cc1c[nH]c2ccccc12)N1C(=O)C2C3c4ccccc4C(c4ccccc43)C2C1=O (centres unmarked)	14%
Cc1[nH]c(C)c(S(=O)(=O)NCc2ccc(F)cc2)c1C(=O)N1CCCCC1	11.5%
Cn1c(C(=O)N2CCN(c3nc4ccccc4s3)CC2)cc2sccc21	7.74%
O=C(Nc1ccon1)c1cccc(S(=O)(=O)N2CCCCCC2)c1	10.5%
CCCOc1cccc(C(=O)Nc2ccc(Br)cc2F)c1	-0.976%
CC1CN(c2nc3ccccn3c(=O)c2C=O)CC(C)O1 (centres unmarked)	10.6%
COc1ccc(N(CC(=O)NCc2ccco2)S(=O)(=O)c2ccc(C)cc2)cc1	4.12%
Cn1c(NCc2c(O)ccc3ccccc23)nc2ccccc21	10.1%

Compound	hERG current change (%, negative = inhibition) at 1uM
CC(=O)Nc1ccc(/C=N/Nc2nc3ccccc3[nH]2)cc1	9.12%
O=C(NCCc1ccccc1)N1c2ccccc2Sc2ccccc21	-0.2%
CCN(CC(=O)Nc1c(F)cccc1F)C(=O)CCc1nc2ccccc2c(=O)[nH]1	12.6%
CN(C)NC1CC(=O)N(c2ccccc2)C1=O (centres unmarked)	16.3%
CSc1cnn(-c2ccccc2)c(=O)c1SC	21%
COc1ccc(C)cc1S(=O)(=O)N(C)CC(=O)NC1CCCCC1	16.4%
Cc1nn(C)c(C(=O)Nc2ccn(Cc3c(F)c(F)cc(F)c3F)n2)c1[N+](=O)[O-]	4.4%
CCc1ccccc1NC(=O)CN(C)C(=O)Cn1cc(C(F)(F)F)cc(Cl)c1=O	3.18%
Cn1nnnc1NC(=O)c1ccccc1Cl	9.54%
O=C(c1ccccc1NS(=O)(=O)c1cccc(C(F)(F)F)c1)N1CCc2ccccc21	20.4%
COc1cc(C(=O)N2CCN(Cc3ccccn3)CC2)cc(OC)c1OC.O=C(O)C(=O)O	9.8%
CN(C(=O)CCNC(=O)Cn1cnc2ccccc2c1=O)c1ccccc1F	6.94%
CC(C)Sc1nnc(CNC(=O)C23CC4CC(CC(C4)C2)C3)n1Cc1ccccc1	14%
NS(=O)(=O)c1ccc(CCNC(=O)c2ccc(C(=O)c3ccccc3)cc2)cc1	8.76%
COc1ccc(/C=N/NS(=O)(=O)c2ccccc2)cc1OC	15.8%
Cc1csc2nc(CSc3nc4ccccc4o3)cn12	5.11%
O=C(CN1c2cccc3cccc(c23)S1(=O)=O)Nc1ccccc1	8.59%
CCCCOC(=O)/C(=C/c1cn(C)c2ccccc12)NC(=O)c1ccc(OC)cc1	13.3%
O=C(O)c1ccccc1C(=O)NNc1ccc(Cl)cc1Cl	-4.28%
CC1=C(C)CC(C(=O)Nc2nccs2)C(C(=O)O)C1 (centres unmarked)	23.2%
Cc1cc(N2C(=O)C(O)=C(C(=O)c3ccco3)C2c2cccc(O)c2)no1 (centres unmarked)	9.7%
CC1CC(=O)N(CC(=O)NCc2ccco2)c2ccccc2S1 (centres unmarked)	-2.83%
